Some of the results follow. At the low end of the ranking, values are background and their order means little.
Target: T1, GST-Rok (full length) (UniProt O34857)
T1 sequence: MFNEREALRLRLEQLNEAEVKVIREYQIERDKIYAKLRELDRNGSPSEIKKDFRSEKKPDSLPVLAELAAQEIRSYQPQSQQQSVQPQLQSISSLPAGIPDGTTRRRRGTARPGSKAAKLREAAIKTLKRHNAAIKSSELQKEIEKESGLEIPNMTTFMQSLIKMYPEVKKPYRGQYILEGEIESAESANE
Test: protein binding microarray;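 note: rank score from −0.5 (least bound) to 0.5 (best bound)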
Conditions: Rok is a gene silencer of Bacillus subtilis; high values mean tight binding; most listed sequences are background and not binding sites; double strand, one strand shown

Sequence | binding signal
AACCGCAA | -0.0711 E-score
GCAGGCAA | -0.116 E-score
CTGCAAAA | 0.0156 E-score
AGATCTCC | -0.0139 E-score
GCCGACTA | -0.115 E-score
GGAGACAC | -0.245 E-score
AGACCCCA | -0.387 E-score
ATCTCGCG | 0.171 E-score
ATCCTTGA | -0.0312 E-score
GAGCAATA | 0.223 E-score
GCTTCACA | -0.114 E-score
GATTAGCC | -0.161 E-score
CGGGCCTC | -0.278 E-score
CTCACCAC | 0.0621 E-score
AAGCGAAT | -0.0766 E-score
AGTCTACG | 0.09 E-score
CGAACGGC | -0.312 E-score
CCGTGATC | 0.0178 E-score
CGTCGCGA | -0.0337 E-score
GCCGAGCC | -0.338 E-score
CGGACCAA | -0.0996 E-score
GGTCGTAA | 0.0357 E-score
ACTCGGCC | -0.0884 E-score
GGCCGCAA | -0.231 E-score
GAGTACAC | 0.041 E-score

Sequence | binding signal
CGCTACTA | 0.28 E-score
ACTCGCAT | -0.0234 E-score
CACGGCGG | -0.321 E-score
CGTATGAC | -0.117 E-score
CACCTACC | 0.0555 E-score
CGTAGTAA | 0.198 E-score
CACACGGA | -0.0701 E-score
GAACAGAA | 0.0425 E-score
AATGCCCC | -0.243 E-score
ACTTTCCG | 0.0454 E-score
ATTGAGCC | -0.225 E-score
ATTATGTA | 0.358 E-score
TGGCAAAA | 0.0417 E-score
ATCGGCGG | -0.266 E-score
CTCTCTTA | -0.189 E-score
CGCCATCC | -0.324 E-score
ACGTCGTA | 0.0992 E-score
GATTACGC | -0.0574 E-score
ATATCGAA | 0.19 E-score
CCAAGGGC | -0.279 E-score
CCAGCACG | -0.154 E-score
ACCTGGGC | -0.177 E-score
CGATTCCA | 0.0584 E-score
CTCGTCCC | -0.243 E-score
ACTTGCGG | 0.0475 E-score

Sequence | binding signal
ACGACAGA | -0.0532 E-score
GTGGAGGA | -0.271 E-score
GCGTACTA | 0.082 E-score
CGCCACTA | -0.056 E-score
ATGGTCCA | -0.0725 E-score
CAACTATA | 0.307 E-score
CCCTTTTA | -0.102 E-score
TGTCTAAA | 0.0409 E-score
TATGGCAA | 0.0101 E-score
CAAAGCGC | -0.101 E-score
AAGGGACT | -0.149 E-score
AATGCGCA | -0.0491 E-score
GACGTGGA | -0.18 E-score
AAATTAGC | 0.206 E-score
ATGATCTC | 0.00397 E-score
GTCTCGGA | -0.109 E-score
ATAAACGG | 0.169 E-score
AACTCCCC | -0.216 E-score
TGAGACCA | -0.117 E-score
ACCACCGC | -0.0949 E-score
AAACAATA | 0.246 E-score
CTTTAATC | 0.000899 E-score
CGCGCTGA | 0.105 E-score
AATAACAT | 0.101 E-score
AATATCGG | 0.291 E-score

Sequence | binding signal
GGAGTATA | 0.000352 E-score
CCTGGAAG | -0.179 E-score
AGGCAAAG | -0.276 E-score
CTGTAATA | 0.313 E-score
CATTAAGG | -0.054 E-score
ATCCATGG | 0.12 E-score
TATTCACA | 0.2 E-score
GCAAACGA | -0.117 E-score
CAAGAACG | 0.0325 E-score
GGTATCCA | 0.0599 E-score
AAAACGGT | 0.0886 E-score
TACTGGGA | 0.159 E-score
ACGGGCGG | -0.335 E-score
AAGCACAG | -0.0868 E-score
ACCAATTG | 0.0883 E-score
ACGGTTTA | 0.0261 E-score
CTACTTAC | 0.294 E-score
CCCACAAG | -0.217 E-score
GCTAGTCA | -0.0821 E-score
ATAAAGGA | -0.0384 E-score
AGCCTAAC | -0.0514 E-score
AGATGCCG | 0.00234 E-score
ATCTAAAG | -0.0448 E-score
ATATCTGG | 0.112 E-score
CGCTACCC | -0.127 E-score

Sequence | binding signal
ACCTCATC | 0.031 E-score
GACGCGAA | -0.0941 E-score
ACTCTAGA | 0.114 E-score
ATTCTATG | 0.0909 E-score
CCTCCCCG | -0.407 E-score
AGGACTAA | -0.0661 E-score
GATATGGC | -0.0832 E-score
CCCTAGTC | -0.25 E-score
CACTCTAG | -0.0364 E-score
ACTTCCCG | -0.201 E-score
CCGATGGC | -0.331 E-score
ATTCCGAC | 0.0845 E-score
AACCCCTT | -0.293 E-score
ATAGTAAA | 0.397 E-score
GCGGATCA | -0.193 E-score
GGGTAAGA | -0.0994 E-score
AGAGCAAT | 0.058 E-score
AATCTGAG | 0.0668 E-score
CGTTACAA | 0.151 E-score
ACGTAGGC | -0.297 E-score
GAGGGGTA | -0.271 E-score
ACCAGTCT | 0.0205 E-score
CGTTGTAC | 0.039 E-score
AATATAAT | 0.228 E-score
AGAGTAGG | -0.0763 E-score

Sequence | binding signal
GAAAATTC | 0.00925 E-score
CTTTCGAA | 0.0639 E-score
GTCTACCA | 0.0944 E-score
AAACTGCT | -0.0189 E-score
CGTACGAG | -0.195 E-score
ATATGCTG | 0.143 E-score
ATGCTGTC | 0.0388 E-score
CACATAAA | -0.00284 E-score
ATCCGTTG | 0.0609 E-score
AGTAGAGG | -0.169 E-score
GATGCGAC | -0.205 E-score
AGGGAGTC | -0.375 E-score
CCCTCCTA | -0.349 E-score
GCTGGGTA | 0.0601 E-score
GCGAGTCC | -0.112 E-score
CAAGTATC | 0.0694 E-score
AGACTGTC | 0.0207 E-score
GAGCGTCC | -0.203 E-score
AAAGGCTC | -0.183 E-score
AAATTCTC | 0.0375 E-score
AATTTAGC | 0.252 E-score
AAGTCGGG | -0.266 E-score
CGCAAGCC | -0.112 E-score
CCTTGATC | -0.171 E-score
GTTGTCTA | -0.0877 E-score

Sequence | binding signal
AAAAGTAG | 0.308 E-score
GGGATACA | 0.0313 E-score
AAGACCAA | -0.0454 E-score
CTTGTGAA | 0.115 E-score
AGACATCG | -0.122 E-score
GAGGAACC | -0.113 E-score
ACTTAAGA | -0.117 E-score
AGGTCCAG | -0.187 E-score
AGCCCGAC | -0.3 E-score
CAAATTTA | 0.168 E-score
CGTGCCTA | -0.0621 E-score
TACGGGGA | -0.089 E-score
CCTCTCCA | -0.235 E-score
ATGGGTTG | 0.0584 E-score
CTGATCCC | -0.351 E-score
CTCTTTTA | 0.178 E-score
CGTGCTCA | -0.158 E-score
AGACCCAA | 0.000788 E-score
ACAAACCG | 0.0116 E-score
TACCTGAA | 0.151 E-score
GAAGACGC | -0.327 E-score
ACACAAGA | 0.0236 E-score
